Data on 195 variants can be found in a collection of fitness landscapes (doi:10.1126/science.1257360).

The other results are listed elsewhere or left out. A value given as a limit tells only on which side of the number the result lay.

B1: PhoQ; a variant is named by its letters at X, in order, P23837 (parent)
chain: MKKLLRLFFPLSLRVRFLLATAAVVLVLSLAYGMVALIGYSVSFDKTTFRLLRGESNLFYTLAKWENNKLHVELPENIDKQSPTMTLIYDENGQLLWAQRDVPWLMKMIQPDWLKSNGFHEIEADVNDTSLLLSGDHSIQQQLQEVREDDDDAEMTHSVAVNVYPATSRMPKLTIVVVDTIPVELKSSYMVWSWFIYVLSANLLLVIPLLWVAAWWSLRPIEALAKEVRELEEHNRELLNPATTRELTSLVRNLNRLLKSERERYDKYRTTLTDLTHSLKTPLXXLQXXLRSLRSEKMSVSDAEPVMLEQISRISQQIGYYLHRASMRGGTLLSRELHPVAPLLDNLTSALNKVYQRKGVNISLDISPEISFVGEQNDFVEVMGNVLDNACKYCLEFVEISARQTDEHLYIVVEDDGPGIPLSKREVIFDRGQRVDTLRPGQGVGLAVAREITEQYEGKIVAGESMLGGARMEVIFGRQHSAPKDE

Variants of B1 are the subject of this test. The experiment in a line: enrichment ratio after two sorts for PhoP signalling (ratio (wild type AVST 3.29)); higher = more functional. To be noted: with PhoP (E. coli).
As for SQRS, the enrichment ratio was ≤ 0.25.

PLPV: the enrichment ratio is ≤ 0.25.

On to IIMQ, for which the enrichment ratio is ≤ 0.25.

For NKLS, the enrichment ratio was ≤ 0.25.

As to DILM, the enrichment ratio was ≤ 0.25.

On to IIQK, for which the enrichment ratio was ≤ 0.25.

On to NPTF, for which the enrichment ratio was ≤ 0.25.

For NDAL, the enrichment ratio is ≤ 0.25.

Turning to AYRE, the enrichment ratio is ≤ 0.25.

Turning to EFMH, the enrichment ratio is ≤ 0.25.

Turning to YSWH, the enrichment ratio is ≤ 0.25.

As to MDDA, the enrichment ratio is ≤ 0.25.

With WAHL, the enrichment ratio is ≤ 0.25.

Take DLEA: the enrichment ratio is ≤ 0.25.

In the case of PYIH, the enrichment ratio was ≤ 0.25.

For VREG, the enrichment ratio was ≤ 0.25.

IGMH: the enrichment ratio was ≤ 0.25.

In the case of HEWC, the enrichment ratio was ≤ 0.25.

As to IDAA, the enrichment ratio was ≤ 0.25.

With PFWQ, the enrichment ratio is ≤ 0.25.

For the variant NDIR, the enrichment ratio is ≤ 0.25.

For the variant MYIY, the enrichment ratio is ≤ 0.25.

Regarding EHDH, the enrichment ratio was ≤ 0.25.

On to HFVY, for which the enrichment ratio was ≤ 0.25.

With EFMM, the enrichment ratio was ≤ 0.25.

As to YSME, the enrichment ratio came to 1.23.

Turning to PFMK, the enrichment ratio is ≤ 0.25.

On to GVMM, for which the enrichment ratio was ≤ 0.25.

For the variant FDDP, the enrichment ratio was ≤ 0.25.

In the case of TSSW, the enrichment ratio was ≤ 0.25.

Regarding QCRC, the enrichment ratio is ≤ 0.25.

For PHYN, the enrichment ratio was ≤ 0.25.

Take DDHP: the enrichment ratio is ≤ 0.25.

On to ELAD, for which the enrichment ratio was ≤ 0.25.

Regarding EAHM, the enrichment ratio was ≤ 0.25.

LTPA: the enrichment ratio was ≤ 0.25.

Regarding KRFR, the enrichment ratio is ≤ 0.25.

As for RTTS, the enrichment ratio was ≤ 0.25.

In the case of VPIY, the enrichment ratio was ≤ 0.25.

On to HVNS, for which the enrichment ratio is ≤ 0.25.

Consider TPRC, for which the enrichment ratio is ≤ 0.25.

With RGYA, the enrichment ratio is ≤ 0.25.

As for KKSP, the enrichment ratio was ≤ 0.25.

Consider CSNA, for which the enrichment ratio was ≤ 0.25.

STHT: the enrichment ratio was ≤ 0.25.

For VHCK, the enrichment ratio is ≤ 0.25.

FPAG: the enrichment ratio is ≤ 0.25.

Consider IGFR, for which the enrichment ratio was ≤ 0.25.

Turning to DFWA, the enrichment ratio was ≤ 0.25.

As for GFNQ, the enrichment ratio is ≤ 0.25.

Turning to LMWR, the enrichment ratio was ≤ 0.25.

Regarding YEGI, the enrichment ratio was ≤ 0.25.

In the case of IKLV, the enrichment ratio is ≤ 0.25.

As to YMFC, the enrichment ratio is ≤ 0.25.

Consider VFYT, for which the enrichment ratio was ≤ 0.25.

For the variant FFIL, the enrichment ratio was ≤ 0.25.

Consider VFYH, for which the enrichment ratio was ≤ 0.25.

Consider VNSG, for which the enrichment ratio was 1.9.

Regarding WKIQ, the enrichment ratio is ≤ 0.25.

As to LMAN, the enrichment ratio was ≤ 0.25.

On to SGDE, for which the enrichment ratio was ≤ 0.25.

For the variant NRRA, the enrichment ratio was ≤ 0.25.

Turning to FPDG, the enrichment ratio is ≤ 0.25.

On to KCVW, for which the enrichment ratio is ≤ 0.25.

Take WFVG: the enrichment ratio is ≤ 0.25.

Take WGRD: the enrichment ratio was ≤ 0.25.

On to TEVD, for which the enrichment ratio was ≤ 0.25.

Take PRRY: the enrichment ratio was ≤ 0.25.

For PLVD, the enrichment ratio is ≤ 0.25.

Take AMIF: the enrichment ratio was ≤ 0.25.

Turning to ETSM, the enrichment ratio is ≤ 0.25.

Take IGHI: the enrichment ratio was ≤ 0.25.

For NEIF, the enrichment ratio is ≤ 0.25.

Consider IRRN, for which the enrichment ratio was ≤ 0.25.

In the case of WHDY, the enrichment ratio was ≤ 0.25.

On to PGIR, for which the enrichment ratio was ≤ 0.25.

SDQP: the enrichment ratio was ≤ 0.25.

As for RAQP, the enrichment ratio is ≤ 0.25.

MSRQ: the enrichment ratio was ≤ 0.25.

For the variant EVDW, the enrichment ratio is ≤ 0.25.

For DDSA, the enrichment ratio was ≤ 0.25.

With DVRC, the enrichment ratio was ≤ 0.25.

In the case of QKGV, the enrichment ratio was ≤ 0.25.

Regarding KGLH, the enrichment ratio is ≤ 0.25.

Take HTAA: the enrichment ratio was ≤ 0.25.

For NRGE, the enrichment ratio was ≤ 0.25.

As to SEVD, the enrichment ratio worked out at 8.74.

For TQKD, the enrichment ratio was ≤ 0.25.

Consider DHII, for which the enrichment ratio is ≤ 0.25.

Turning to ETKA, the enrichment ratio is ≤ 0.25.

In the case of RDGL, the enrichment ratio is ≤ 0.25.

Take QQTP: the enrichment ratio is ≤ 0.25.

As for FWMG, the enrichment ratio is ≤ 0.25.

Take EYPH: the enrichment ratio is ≤ 0.25.

For YQMW, the enrichment ratio is ≤ 0.25.

VAGR: the enrichment ratio is ≤ 0.25.

With RIII, the enrichment ratio is ≤ 0.25.

APPV: the enrichment ratio is ≤ 0.25.

Regarding FHCQ, the enrichment ratio was ≤ 0.25.

On to YKMN, for which the enrichment ratio was ≤ 0.25.

Turning to SKPA, the enrichment ratio was ≤ 0.25.

For the variant VGWH, the enrichment ratio was ≤ 0.25.

PEVW: the enrichment ratio is ≤ 0.25.

With NNTV, the enrichment ratio turned out to be 2.11.

Regarding DYAS, the enrichment ratio is ≤ 0.25.

MCSL: the enrichment ratio was found to be 8.37.

Consider DQRM, for which the enrichment ratio is ≤ 0.25.

Turning to FLMG, the enrichment ratio was ≤ 0.25.

In the case of DGPV, the enrichment ratio was ≤ 0.25.

On to TMNM, for which the enrichment ratio came out at 35.

Turning to MQGV, the enrichment ratio is ≤ 0.25.

Take QNYM: the enrichment ratio was ≤ 0.25.

For the variant SSWM, the enrichment ratio was found to be 6.76.

Take LMST: the enrichment ratio is ≤ 0.25.

As to HPGL, the enrichment ratio was ≤ 0.25.

Consider HDAV, for which the enrichment ratio is ≤ 0.25.

Regarding GHDF, the enrichment ratio was ≤ 0.25.

For the variant DWFR, the enrichment ratio was ≤ 0.25.

On to GHWF, for which the enrichment ratio was ≤ 0.25.

For PLKR, the enrichment ratio was ≤ 0.25.

As for PCPR, the enrichment ratio was ≤ 0.25.

In the case of LPFV, the enrichment ratio was ≤ 0.25.

Regarding LHYE, the enrichment ratio is ≤ 0.25.

Take YHYK: the enrichment ratio was ≤ 0.25.

Turning to VEED, the enrichment ratio is ≤ 0.25.

Turning to QKFD, the enrichment ratio was ≤ 0.25.

As for DSHE, the enrichment ratio is ≤ 0.25.

As to EVTM, the enrichment ratio was ≤ 0.25.

In the case of VEVC, the enrichment ratio stood at 5.85.

As for HFGR, the enrichment ratio was ≤ 0.25.

For RDKT, the enrichment ratio was ≤ 0.25.

Regarding DNWC, the enrichment ratio was ≤ 0.25.

Take RIPG: the enrichment ratio was ≤ 0.25.

As for QKMP, the enrichment ratio was ≤ 0.25.

As to QENV, the enrichment ratio was ≤ 0.25.

Turning to INPE, the enrichment ratio is ≤ 0.25.

Regarding SCHF, the enrichment ratio is ≤ 0.25.

Regarding FPSQ, the enrichment ratio is ≤ 0.25.

For QPAS, the enrichment ratio is ≤ 0.25.

DSGQ: the enrichment ratio was ≤ 0.25.

Turning to KSMG, the enrichment ratio was ≤ 0.25.

In the case of WLSR, the enrichment ratio was ≤ 0.25.

Regarding WLPH, the enrichment ratio was ≤ 0.25.

In the case of MECQ, the enrichment ratio was ≤ 0.25.

For the variant GLDE, the enrichment ratio was ≤ 0.25.

As to LTLH, the enrichment ratio was ≤ 0.25.

Consider SHMR, for which the enrichment ratio was ≤ 0.25.

GMDI: the enrichment ratio was ≤ 0.25.

For the variant FWSI, the enrichment ratio was ≤ 0.25.

On to MDHL, for which the enrichment ratio is ≤ 0.25.

As for VRDQ, the enrichment ratio is ≤ 0.25.

With YPGT, the enrichment ratio was ≤ 0.25.

As to YQTD, the enrichment ratio is ≤ 0.25.

Regarding VVGG, the enrichment ratio is ≤ 0.25.

Consider PSSE, for which the enrichment ratio is ≤ 0.25.

Take MNPA: the enrichment ratio was ≤ 0.25.

Turning to PQAD, the enrichment ratio is ≤ 0.25.

As to EKES, the enrichment ratio is ≤ 0.25.

Consider WCRM, for which the enrichment ratio was ≤ 0.25.

As to HEKC, the enrichment ratio is ≤ 0.25.

On to LCGC, for which the enrichment ratio is ≤ 0.25.

In the case of QISV, the enrichment ratio is ≤ 0.25.

For the variant VSQI, the enrichment ratio is ≤ 0.25.

Turning to SDTN, the enrichment ratio is ≤ 0.25.

Regarding MPSL, the enrichment ratio is ≤ 0.25.

Regarding ACSR, the enrichment ratio was determined as 7.12.

On to THNF, for which the enrichment ratio worked out at 7.91.

Take VEWN: the enrichment ratio was ≤ 0.25.

For PCIH, the enrichment ratio was ≤ 0.25.

As to MWRM, the enrichment ratio is ≤ 0.25.

For the variant LYTS, the enrichment ratio was ≤ 0.25.

For the variant AMYW, the enrichment ratio was ≤ 0.25.

With GTKQ, the enrichment ratio is ≤ 0.25.

For the variant WKRR, the enrichment ratio is ≤ 0.25.

As to SWHW, the enrichment ratio was ≤ 0.25.

With TMCW, the enrichment ratio was ≤ 0.25.

For EKSR, the enrichment ratio is ≤ 0.25.

Regarding VSSH, the enrichment ratio was ≤ 0.25.

On to YFTE, for which the enrichment ratio is ≤ 0.25.

Take SCTG: the enrichment ratio is 7.75.

Consider GGYF, for which the enrichment ratio is ≤ 0.25.

For the variant VFHW, the enrichment ratio was ≤ 0.25.

For the variant FHRC, the enrichment ratio was ≤ 0.25.

With GSIH, the enrichment ratio is ≤ 0.25.

With MFFA, the enrichment ratio is ≤ 0.25.

Consider DYHN, for which the enrichment ratio is ≤ 0.25.

Consider VSHT, for which the enrichment ratio was ≤ 0.25.

For IPMN, the enrichment ratio was ≤ 0.25.

For FKEA, the enrichment ratio is ≤ 0.25.

Turning to MRFS, the enrichment ratio was ≤ 0.25.

Take WSVF: the enrichment ratio is ≤ 0.25.

RESK: the enrichment ratio was ≤ 0.25.

Consider AIAP, for which the enrichment ratio came out at 0.627.

As for SDQF, the enrichment ratio was ≤ 0.25.

As for IHPK, the enrichment ratio is ≤ 0.25.
